Test results published in publication PMC3972091.
Read-outs that look alike come from different tables or passages of the source. Results are given in words; binding and its absence hold for the method and conditions named. In cells and extracts the contact can be indirect. Some entries that bind do so weakly or less than the wild type. For some of these results: Sequences can lack the tags named with a protein.

Protein sequences, listed by entry. Tags and fused reporters are not part of them.
UniProt P40222: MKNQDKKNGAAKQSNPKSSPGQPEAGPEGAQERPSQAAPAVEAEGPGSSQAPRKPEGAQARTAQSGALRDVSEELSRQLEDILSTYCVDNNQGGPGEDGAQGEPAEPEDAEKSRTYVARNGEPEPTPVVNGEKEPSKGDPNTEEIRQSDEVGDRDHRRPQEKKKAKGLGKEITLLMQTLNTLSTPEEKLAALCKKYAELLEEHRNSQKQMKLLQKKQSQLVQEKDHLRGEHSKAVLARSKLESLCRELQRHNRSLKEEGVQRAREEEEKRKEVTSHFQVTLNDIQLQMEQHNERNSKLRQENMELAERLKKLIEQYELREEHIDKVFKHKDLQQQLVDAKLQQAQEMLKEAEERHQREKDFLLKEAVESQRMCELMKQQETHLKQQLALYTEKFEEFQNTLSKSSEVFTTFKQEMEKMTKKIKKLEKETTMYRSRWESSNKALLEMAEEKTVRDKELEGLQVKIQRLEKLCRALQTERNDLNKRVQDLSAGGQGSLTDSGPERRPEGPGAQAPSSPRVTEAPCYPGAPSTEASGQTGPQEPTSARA
UniProt Q13596: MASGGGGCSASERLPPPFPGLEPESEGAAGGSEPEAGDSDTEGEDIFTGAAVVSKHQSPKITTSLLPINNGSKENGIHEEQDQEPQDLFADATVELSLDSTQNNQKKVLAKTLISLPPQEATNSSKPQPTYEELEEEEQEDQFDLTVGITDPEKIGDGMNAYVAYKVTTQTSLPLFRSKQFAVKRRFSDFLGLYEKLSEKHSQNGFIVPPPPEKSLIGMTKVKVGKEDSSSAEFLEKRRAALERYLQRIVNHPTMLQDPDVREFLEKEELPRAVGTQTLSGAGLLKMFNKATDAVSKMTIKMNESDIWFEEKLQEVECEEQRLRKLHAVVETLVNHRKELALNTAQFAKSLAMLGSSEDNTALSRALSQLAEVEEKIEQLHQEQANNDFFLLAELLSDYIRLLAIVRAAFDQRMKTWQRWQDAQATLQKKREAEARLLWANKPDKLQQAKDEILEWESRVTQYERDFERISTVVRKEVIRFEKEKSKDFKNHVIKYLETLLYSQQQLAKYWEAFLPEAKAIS

T1: HA-SNX4 (human) (UniProt O95219)
T1 sequence: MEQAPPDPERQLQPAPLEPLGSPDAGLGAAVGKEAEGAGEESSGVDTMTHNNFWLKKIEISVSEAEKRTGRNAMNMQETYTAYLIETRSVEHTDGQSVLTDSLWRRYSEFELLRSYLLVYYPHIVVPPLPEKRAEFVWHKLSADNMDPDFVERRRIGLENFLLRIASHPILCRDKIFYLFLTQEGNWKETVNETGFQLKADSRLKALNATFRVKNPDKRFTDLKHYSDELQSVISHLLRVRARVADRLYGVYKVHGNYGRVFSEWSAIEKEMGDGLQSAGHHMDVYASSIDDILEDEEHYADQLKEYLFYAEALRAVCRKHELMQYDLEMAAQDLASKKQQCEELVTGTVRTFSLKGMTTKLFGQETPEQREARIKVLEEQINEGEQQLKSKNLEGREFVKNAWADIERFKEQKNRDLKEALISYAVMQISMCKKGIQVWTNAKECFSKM


How the values were obtained:
myc-α-taxilin [1] = target: myc-α-taxilin (UniProt P40222); experiment: co-IP; HEK293 cells co-expressing myc-α-taxilin and a GFP-SNX construct; lysate (1% NP-40, 20 mM Tris/HCl pH 8.0, 137 mM NaCl, 10% glycerol) immunoprecipitated with anti-myc antibody or nonimmune IgG on protein G sepharose, 4°C, 2 h; blotted with anti-myc and anti-GFP
HA-SNX4 (human) = target: T1, HA-SNX4 (human); experiment: co-IP; HEK293 cells expressing HA-SNX4; lysate (1% NP-40, 20 mM Tris/HCl pH 8.0, 137 mM NaCl, 10% glycerol) immunoprecipitated with anti-HA antibody or nonimmune IgG on protein G sepharose, 4°C, 2 h; blotted with anti-HA and anti-α-taxilin (endogenous α-taxilin)
myc-α-taxilin [2] = target: myc-α-taxilin (UniProt P40222); experiment: co-IP; HEK293 cells co-expressing myc-α-taxilin and a GFP-SNX construct; lysate (1% NP-40, 20 mM Tris/HCl pH 8.0, 137 mM NaCl, 10% glycerol) immunoprecipitated with anti-myc antibody or nonimmune IgG on protein G sepharose, 4°C, 2 h; blotted with anti-myc and anti-GFP; remark: listed apart in the source

| Molecule | binding (myc-α-taxilin [2]) | also measured |
| --- | --- | --- |
| GFP-SNX1 (from UniProt Q13596 1-522) | – | binding (myc-α-taxilin [1]): binds weakly |
| endogenous α-taxilin (from UniProt P40222 1-546) | – | binding (HA-SNX4 (human)): binds |
| GFP-SNX4 (292–450) (domain or fragment, UniProt O95219 292-450) DILEDEEHYADQLKEYLFYAEALRAVCRKHELMQYDLEMAAQDLASKKQQCEELVTGTVRTFSLKGMTTKLFGQETPEQREARIKVLEEQINEGEQQLKSKNLEGREFVKNAWADIERFKEQKNRDLKEALISYAVMQISMCKKGIQVWTNAKECFSKM | binds | – |
| GFP-SNX4 (protein, UniProt O95219 1-450) MEQAPPDPERQLQPAPLEPLGSPDAGLGAAVGKEAEGAGEESSGVDTMTHNNFWLKKIEISVSEAEKRTGRNAMNMQETYTAYLIETRSVEHTDGQSVLTDSLWRRYSEFELLRSYLLVYYPHIVVPPLPEKRAEFVWHKLSADNMDPDFVERRRIGLENFLLRIASHPILCRDKIFYLFLTQEGNWKETVNETGFQLKADSRLKALNATFRVKNPDKRFTDLKHYSDELQSVISHLLRVRARVADRLYGVYKVHGNYGRVFSEWSAIEKEMGDGLQSAGHHMDVYASSIDDILEDEEHYADQLKEYLFYAEALRAVCRKHELMQYDLEMAAQDLASKKQQCEELVTGTVRTFSLKGMTTKLFGQETPEQREARIKVLEEQINEGEQQLKSKNLEGREFVKNAWADIERFKEQKNRDLKEALISYAVMQISMCKKGIQVWTNAKECFSKM | binds | – |

The next lines start with results.

| binding (myc-α-taxilin [2]) | Molecule | also measured |
| --- | --- | --- |
| no binding | AWADIERFKEQKNRDLKEALISYAVMQISMCKKGIQVWTNAKECFSKM (domain or fragment, UniProt O95219 403-450) [GFP-SNX4 (403–450)] | – |
| no binding | GFP-SNX4 (residues 1–402) (domain or fragment, UniProt O95219 1-402) MEQAPPDPERQLQPAPLEPLGSPDAGLGAAVGKEAEGAGEESSGVDTMTHNNFWLKKIEISVSEAEKRTGRNAMNMQETYTAYLIETRSVEHTDGQSVLTDSLWRRYSEFELLRSYLLVYYPHIVVPPLPEKRAEFVWHKLSADNMDPDFVERRRIGLENFLLRIASHPILCRDKIFYLFLTQEGNWKETVNETGFQLKADSRLKALNATFRVKNPDKRFTDLKHYSDELQSVISHLLRVRARVADRLYGVYKVHGNYGRVFSEWSAIEKEMGDGLQSAGHHMDVYASSIDDILEDEEHYADQLKEYLFYAEALRAVCRKHELMQYDLEMAAQDLASKKQQCEELVTGTVRTFSLKGMTTKLFGQETPEQREARIKVLEEQINEGEQQLKSKNLEGREFVKN | – |
| no binding | GFP-SNX4 (residues 1–189) (domain or fragment, UniProt O95219 1-189) MEQAPPDPERQLQPAPLEPLGSPDAGLGAAVGKEAEGAGEESSGVDTMTHNNFWLKKIEISVSEAEKRTGRNAMNMQETYTAYLIETRSVEHTDGQSVLTDSLWRRYSEFELLRSYLLVYYPHIVVPPLPEKRAEFVWHKLSADNMDPDFVERRRIGLENFLLRIASHPILCRDKIFYLFLTQEGNWKE | – |
